US20080075796A1, “Compositions and Methods for Controlling Insects” (TyraTech, Inc., priority 2003, published 2008)

Tested on: Carpenter ants
Assay: Repellent effect on carpenter ants (treated filter paper)
Format: in vivo
Description: Adult insect are randomly selected for testing the repellent effect of compositions and are not individually marked. About 5 insects per replicate are used. About 3 replicates are used for each treatment. Untreated control tests are included with only solvent (acetone) application to an equal sized population/replications, held under identical conditions. A filter paper (about 80 cm^2) is treated with the composition (about 100 mg in […] acetone). After about 3 min of air drying, the filter paper is placed in a dish and repellency against insects is performed. Insects are released to the dish, one insect at a time at the far end of the dish. Using one or more stopwatches, the time spent on either the filter paper or the untreated surface of the dish is recorded up to about 300 seconds. Repellency ratio (RR) is calculated as follows: RR=[(time on control surface−time on treated surface)/total time of test]. If RR>0 then the composition is considered to have a repellant effect, that is to say, an effect, wherein more insects are repelled away from treated surface than the control surface; if RR<0 then the composition is considered not to have a repellant effect.
The repellent effect of various plant essential oils is tested by treating a filter paper with the test oils. After about five minutes at room temperature, the paper is placed in a dish and ants are introduced one at a time. The repellency is determined as described above, in Example 14. Oils are tested alone. Additionally, oils are mixed to form compositions, which are then tested.

Row | SMILES | Repellency %, R % (Day 0) [%] | sec. on T surface (Day 0, time on treated surface of up to about 300 seconds) [s] | Repellency %, R % (Day 1) [%]
1 | CC(C)=CCC/C(C)=C/CO [geraniol] | 54.0 | 69 | 
2 | Cc1ccc(C(C)C)c(O)c1 [thymol] |  |  | 30.4
